Paper PMC7502549 (Journal of molecular biology, 2020)

Biological target: the molecule itself
Assay: AUC

B1: Neuronal growth regulator 1 (NEGR1) extracellular domain, […], with C-terminal linker and hexahistidine tag (domain or fragment)
chain: not shown
modifications: N-linked glycosylation (extensive)
stoichiometry N: 2
